Assay results reported in PubChem BioAssay AID463173 (ICCB-Longwood Screening Facility, Harvard Medical School, 2010).
The campaign covered roughly 52,000 compounds. About 4,300 (8.3%) were called active. Cut-off read from the data, not from the text of the source: active = survival mostly below about 52% (no sharp cut-off); inactive = mostly above about 56%. Some of the results follow.

system: DeltatarO mutant; experiment: S. aureus survival, RN4220 and DeltatarO strains – OD600, teichoic acid synthesis inhibitors, primary screen (AID 463173); conditions: S. aureus RN4220 wild type/DeltatarO growth, OD600, 18 h, active compounds read low, screened at 18.75 µg/mL (by protocol)

| SMILES | survival |
| --- | --- |
| COc1ccc(Cn2c(=O)n(Cc3ccco3)c(=O)c3oc4ccccc4c32)cc1 | inactive: 60% |
| Cc1cc(OC(C)C(=O)Nc2cccc(-c3nc4ccccc4o3)c2)cc(C)c1Cl (stereo unspecified) | active: 46% |
| CC(=O)N1CCc2cc(S(=O)(=O)CCC(=O)Nc3ccc(C)cc3Br)ccc21 | inactive: 89% |
| Cc1ccc(Cn2c(C)c3cnn(CC(=O)NCc4ccccc4)c(=O)c3c2C)cc1 | inactive: 91% |
| COc1ccc(-c2nc(CSCC(=O)N3CCN(c4cc(Cl)ccc4C)CC3)c(C)o2)cc1 | active: -4% |
| O=C(CCS(=O)(=O)c1ccc(Br)cc1)Nc1ccc(F)cc1F | inactive: 66% |
| Cc1ccc(-c2nc3ncccn3c2Nc2ccc3c(c2)OCCO3)cc1 | inactive: 79% |
| CCc1ccc(CNc2ccc3c(c2)ncn3C(C)(C)C)cc1 | active: -16% |
| Cc1cccc(NS(=O)(=O)c2ccc3c(c2)CC(C)N3C(=O)C2CCC2)c1C (stereo unspecified) | inactive: 78% |
| COc1cccc2c1cc1c(=O)n(CC(=O)N3CCN(c4ccccc4)CC3)nc(C)n12 | inactive: 95% |
| O=C1CC(c2nc(-c3ccccc3)no2)CN1c1ccccc1 (stereo unspecified) | active: 25% |
| CCOc1ccc(N2CC(c3nc4ccccc4n3CCOc3ccccc3OC)CC2=O)cc1 (stereo unspecified) | inactive: 46% |
| CCc1nc2ccc(C(=O)NCc3cc(OC)ccc3OC)cc2nc1CC | inactive: 124% |
| COc1ccccc1C(O)(C(=O)NNc1cccc(Br)n1)c1ccccc1OC | inactive: 73% |
| CCOC(=O)c1c(NC(=O)COc2ccc(Cl)cc2C)sc2c1CCCCC2 | inactive: 75% |
| Cc1ccc(CNC(=O)CS(=O)(=O)c2cccc3nsnc23)cc1 | inactive: 116% |
| COc1cccc(NC(=O)Cn2c(=O)n(CCC(=O)NCCc3ccc(Cl)cc3)c(=O)c3ccccc32)c1 | inactive: 84% |
| COc1ccc(-c2nc(CS(=O)(=O)CC(=O)NCc3ccccc3Br)c(C)o2)cc1 | active: 41% |
| O=C(NCCCN1CCCCCC1)c1ccc2c(c1)sc1nc(-c3ccccc3)cn12 | active: 44% |

| SMILES | survival |
| --- | --- |
| Cc1nc2cc(-c3ccccc3)nn2c(C)c1CCC(=O)Nc1ccc(F)cc1F | inactive: 61% |
| Cc1ccc(CNC(=O)CCCn2c(=O)c3ccccc3n(CC(=O)Nc3ccc(C)cc3)c2=O)cc1 | inactive: 89% |
| CCOc1ccc(NC(=O)CCc2c(C)nn(-c3ccc(N4CCCC4)nn3)c2C)cc1 | inactive: 94% |
| CCC(C(=O)Nc1ccc(C)c(C)c1)n1c(=O)c(C(F)(F)F)nc2ccccc21 (stereo unspecified) | inactive: 103% |
| COC(=O)c1ccc(CO)nc1 | inactive: 87% |
| O=C1c2cc(OCCN3CCOCC3)ccc2-c2ccc(OCCN3CCOCC3)cc21 | inactive: 60% |
| COc1ccc(CCNC(=O)Cc2c(C)c3cc4c(C(C)(C)C)coc4c(C)c3oc2=O)cc1 | inactive: 80% |
| COc1cc(-c2noc(-c3ccc(NCC4CCCO4)c([N+](=O)[O-])c3)n2)cc(OC)c1OC (stereo unspecified) | inactive: 53% |
| COc1ccc(NC(=O)CC2C(=O)N(c3ccc(OC)cc3)C(=O)N2CCC2=CCCCC2)cc1 (stereo unspecified) | inactive: 65% |
| Cc1ccc(C)c(Nc2cc(C(=O)NC3CCCC3)c3ccccc3n2)c1 | inactive: 87% |
| COc1ccc(-c2[nH]ncc2C(=O)NCc2ccccc2C)cc1 | inactive: 74% |
| Cc1onc(-c2ccccc2Cl)c1C(=O)Oc1cc(F)cc(F)c1 | inactive: 84% |
| COC(=O)c1ccccc1NC(=O)Cn1c(=O)n(-c2cccc(OC)c2)c(=O)c2c(C)c(C(=O)N(C)C)sc21 | inactive: 117% |
| CCN(CC)c1nc(Nc2ccccc2)nc(Oc2ccc(=O)[nH]n2)n1 | inactive: 92% |
| CCC(C(=O)NCCc1ccc(SC)cc1)n1nc(C)c2sc3ccccc3c2c1=O (stereo unspecified) | inactive: 69% |
| CC(=O)N1CCCc2cc(S(=O)(=O)N3CCC(C(=O)NCc4ccc(C)cc4)CC3)ccc21 | inactive: 67% |
| CCN(CC)CCNC(=O)c1cn(CC)c2ccc(S(=O)(=O)N3CCOCC3)cc2c1=O | inactive: 111% |
| Cc1ccc(CCNC(=O)Cn2nc(-c3ccc(C)cc3)ccc2=O)cc1 | active: 0% |
| COc1ccc(OCC(=O)OCc2cc(=O)n3nc(C4CCCCC4)sc3n2)cc1 | inactive: 89% |

| SMILES | survival |
| --- | --- |
| CC(=O)Nc1cccc(NC(=O)C(=O)NCCc2sc(-c3ccccc3)nc2C)c1 | inactive: 70% |
| COc1ccc(N2CCN(C(=O)c3cn(CC(C)C)c(=O)c4c3c3ccccc3n4C)CC2)cc1 | inactive: 65% |
| CCc1ccc(-c2nn(CC(=O)Nc3ccccc3)c3c2cnc2ccc(F)cc23)cc1 | inactive: 75% |
| O=C(Cn1c(=O)c2cccn2c2ccccc21)Nc1cc(F)ccc1F | inactive: 44% |
| CCOC(=O)c1cc(-c2ccccc2)n(-c2cccc(C(=O)Nc3ccc(OC)cc3)c2)c1C | inactive: 83% |
| CCOc1ccc(N(C(=O)Cn2nnc3ccccc32)C(C(=O)NCc2ccccc2)c2ccc(OC)cc2)cc1 (stereo unspecified) | inactive: 52% |
| CCc1ccc(CNC(=O)c2ccc(NC(=O)N3CCCCc4ccccc43)cc2)cc1 | inactive: 83% |
| COc1ccc(Cn2c(SCc3ccc(C(=O)NC(C)C)cc3)nc3cccnc32)cc1 | inactive: 98% |
| COc1ccccc1NC(=O)c1cccc(S(=O)(=O)N2CCCCCC2)c1 | active: 40% |
| Cc1c(Cl)cccc1NC(=O)Nc1nnc(N2CCCCCC2)s1 | inactive: 84% |
| O=c1ccnc(NCCc2ccccc2)[nH]1 | inactive: 104% |
| Cc1ccc(C(=O)Nc2cccc(C(=O)O)c2)cc1S(=O)(=O)N1CCCC1 | inactive: 81% |
| O=C(Cn1ncc2ccc(Cl)cc21)NCc1ccc(F)cc1 | inactive: 104% |
| CSc1cccc(Nc2nc3c(S(=O)(=O)c4ccccc4)nnn3c3ccc(Cl)cc23)c1 | inactive: 75% |
| Cc1ccc(C)c(NC(=O)CSc2ncc(S(=O)(=O)c3ccc(C)c(Cl)c3)c(=O)[nH]2)c1 | inactive: 66% |
| O=C(c1ccc2c(c1)N(Cc1ccc(F)cc1)C(=O)c1ccccc1S2=O)N1CCC(Cc2ccccc2)CC1 (stereo unspecified) | inactive: 84% |
| O=C(Cn1c(=O)nc(-c2ccccc2F)c2cc(Cl)ccc21)N1CCN(c2ccccc2F)CC1 | inactive: 99% |
| CCCCC(CC)CNC(=O)CN1C(=O)CSc2ccc(S(=O)(=O)N3CCOCC3)cc21 (stereo unspecified) | inactive: 84% |
